The results in this text go back to the supplement of paper PMC12217912.

The list shows a part of the results. Sequences were assembled here from the parent chain. Values near 0.05 are background.

The chains are these.
B1: TEV protease; numbered along this chain (parent)
chain: MGESLFKGPRDYNPISSSICHLTNESDGHTTSLYGIGFGPFIITNKHLFRRNNGTLVVQSLHGVFKVKDTTTLQQHLVDGRDMIIIRMPKDFPPFPQKLKFREPQREERICLVTTNFQTKSMSSMVSDTSCTFPSGDGIFWKHWIQTKDGQCGSPLVSTRDGFIVGIHSASNFTNTNNYFTSVPKNFMELLTNQEAQQWVSGWRLNADSVLWGGHKVFMVKPEEPFQPVKEATQL
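Further: Bxb1 expression induced with 0.2% (w/v) L-rhamnose at OD600 near 0.5, cultures sampled hourly, flipped fraction per protease–substrate barcode pair counted by paired-end Illumina sequencing.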

The assay covers variants of B1. As to the kind of experiment: raw area under fraction-flipped curve 0-4 h after induction (AUC4h, not background-subtracted), DNA-recorder readout of cleavage of the substrate (dimensionless); higher = more cleavage of the substrate by the protease variant. Conditions: temperature: 34 °C; time window: 0-4 h after rhamnose induction.
Turning to K221A, the “area with substrate ENLEFQS” value was 0.0633, the “area with substrate ENLGFQS” value was 0.0753, the “area with substrate ENLLFQS” value was 0.0679 and the “area with substrate ENLMFQS” value was determined as 0.0684. Besides, the “area with substrate ENLNFQS” value was found to be 0.0784, the “area with substrate ENLPFQS” value is 0.0559, the “area with substrate ENLQFQS” value is 0.0708 and the “area with substrate ENLRFQS” value was determined as 0.0722. Moreover, the “area with substrate ENLSFQS” value is 0.053.
Turning to Q146L, the “area with substrate ENLFFQS” value is 0.124, the “area with substrate ENLHFQS” value came out at 0.0634, the “area with substrate ENLKFQS” value stood at 0.101 and the “area with substrate ENLNFQS” value worked out at 0.0733. Further, the “area with substrate ENLQFQS” value turned out to be 0.0775.
Regarding I145H, the “area with substrate ENLFFQS” value amounted to 0.0726, the “area with substrate ENLKFQS” value amounted to 0.0775, the “area with substrate ENLNFQS” value came to 0.0619 and the “area with substrate ENLVFQS” value was 0.08. Besides, the “area with substrate ENLWFQS” value is 0.0536.
On to I86G, for which the “area with substrate ENLFFQS” value amounted to 0.0803, the “area with substrate ENLKFQS” value stood at 0.0452, the “area with substrate ENLLFQS” value was determined as 0.0482 and the “area with substrate ENLQFQS” value amounted to 0.0231. The “area with substrate ENLSFQS” value was determined as 0.0358 and the “area with substrate ENLWFQS” value is 0.0295.
Consider P93F, for which the “area with substrate ENLFFQS” value came to 0.0842, the “area with substrate ENLGFQS” value was found to be 0.0619, the “area with substrate ENLHFQS” value worked out at 0.058 and the “area with substrate ENLKFQS” value turned out to be 0.0688. For the same variant, the “area with substrate ENLNFQS” value came out at 0.0422.
On to P93R, for which the “area with substrate ENLGFQS” value amounted to 0.0448, the “area with substrate ENLIFQS” value was found to be 0.091, the “area with substrate ENLQFQS” value is 0.0712 and the “area with substrate ENLRFQS” value stood at 0.0826.
As for F180Q, the “area with substrate ENLFFQS” value worked out at 0.0549, the “area with substrate ENLKFQS” value was found to be 0.0456, the “area with substrate ENLLFQS” value is 0.061 and the “area with substrate ENLPFQS” value stood at 0.0392. Besides, the “area with substrate ENLSFQS” value worked out at 0.0227.
Turning to V64S, the “area with substrate ENLEFQS” value was determined as 0.0558, the “area with substrate ENLFFQS” value was 0.1, the “area with substrate ENLGFQS” value turned out to be 0.0643 and the “area with substrate ENLIFQS” value came out at 0.0876. Moreover, the “area with substrate ENLKFQS” value turned out to be 0.093, the “area with substrate ENLLFQS” value amounted to 0.089, the “area with substrate ENLMFQS” value was 0.031 and the “area with substrate ENLPFQS” value is 0.054. For the same variant, the “area with substrate ENLRFQS” value worked out at 0.0757 and the “area with substrate ENLWFQS” value amounted to 0.078.
On to N186C, for which the “area with substrate ENLEFQS” value amounted to 0.0676, the “area with substrate ENLFFQS” value turned out to be 0.0842, the “area with substrate ENLKFQS” value turned out to be 0.0784 and the “area with substrate ENLMFQS” value came to 0.059. Further, the “area with substrate ENLNFQS” value worked out at 0.0434, the “area with substrate ENLRFQS” value was 0.0691 and the “area with substrate ENLVFQS” value stood at 0.0869.
As for G153E, the “area with substrate ENLFFQS” value was found to be 0.0619, the “area with substrate ENLGFQS” value stood at 0.0742, the “area with substrate ENLHFQS” value was found to be 0.0527 and the “area with substrate ENLKFQS” value worked out at 0.0621. Besides, the “area with substrate ENLQFQS” value worked out at 0.0418.
As for Q194V, the “area with substrate ENLEFQS” value turned out to be 0.0627, the “area with substrate ENLIFQS” value was 0.0857, the “area with substrate ENLLFQS” value turned out to be 0.0813 and the “area with substrate ENLPFQS” value is 0.0607. Moreover, the “area with substrate ENLQFQS” value amounted to 0.0738, the “area with substrate ENLRFQS” value was 0.0693 and the “area with substrate ENLVFQS” value was determined as 0.0981.
As for F218D, the “area with substrate ENLEFQS” value turned out to be 0.0646, the “area with substrate ENLFFQS” value stood at 0.0688, the “area with substrate ENLGFQS” value came to 0.0744 and the “area with substrate ENLIFQS” value is 0.058. In addition, the “area with substrate ENLKFQS” value was determined as 0.0716, the “area with substrate ENLNFQS” value turned out to be 0.0668, the “area with substrate ENLPFQS” value was 0.0789 and the “area with substrate ENLRFQS” value was found to be 0.0594. The “area with substrate ENLSFQS” value amounted to 0.0603 and the “area with substrate ENLWFQS” value was 0.0695.
F218T: the “area with substrate ENLEFQS” value worked out at 0.0666, the “area with substrate ENLFFQS” value is 0.0996, the “area with substrate ENLHFQS” value is 0.0722 and the “area with substrate ENLMFQS” value amounted to 0.0738. In addition, the “area with substrate ENLQFQS” value was found to be 0.0646.
I84P: the “area with substrate ENLLFQS” value is 0.0284 and the “area with substrate ENLNFQS” value turned out to be 0.0239.
For Y34K, the “area with substrate ENLFFQS” value was 0.0611, the “area with substrate ENLIFQS” value was 0.0877 and the “area with substrate ENLNFQS” value amounted to 0.0928.
As to G8E, the “area with substrate ENLKFQS” value stood at 0.0785.
Q197F: the “area with substrate ENLGFQS” value was found to be 0.0709, the “area with substrate ENLKFQS” value amounted to 0.0776, the “area with substrate ENLMFQS” value is 0.0738 and the “area with substrate ENLNFQS” value amounted to 0.0684. Further, the “area with substrate ENLQFQS” value is 0.054, the “area with substrate ENLRFQS” value was found to be 0.0769, the “area with substrate ENLSFQS” value is 0.0634 and the “area with substrate ENLTFQS” value came to 0.0845.
As for F92R, the “area with substrate ENLSFQS” value was determined as 0.0382.
Turning to M83V, the “area with substrate ENLEFQS” value turned out to be 0.0539, the “area with substrate ENLFFQS” value came out at 0.0614, the “area with substrate ENLNFQS” value came out at 0.0632 and the “area with substrate ENLQFQS” value stood at 0.0423. Besides, the “area with substrate ENLRFQS” value stood at 0.0641, the “area with substrate ENLSFQS” value is 0.0625 and the “area with substrate ENLWFQS” value is 0.0721.
F6K: the “area with substrate ENLGFQS” value was determined as 0.0633, the “area with substrate ENLHFQS” value stood at 0.0667, the “area with substrate ENLKFQS” value was found to be 0.0764 and the “area with substrate ENLNFQS” value came to 0.0683. The “area with substrate ENLPFQS” value came out at 0.0798, the “area with substrate ENLRFQS” value worked out at 0.065, the “area with substrate ENLSFQS” value came to 0.0561 and the “area with substrate ENLVFQS” value came to 0.0674.
As to P228C, the “area with substrate ENLDFQS” value turned out to be 0.0611, the “area with substrate ENLEFQS” value was 0.064, the “area with substrate ENLFFQS” value is 0.0757 and the “area with substrate ENLHFQS” value was found to be 0.0465. Further, the “area with substrate ENLIFQS” value is 0.0767, the “area with substrate ENLKFQS” value turned out to be 0.0947, the “area with substrate ENLLFQS” value amounted to 0.0715 and the “area with substrate ENLMFQS” value stood at 0.0626. Also, the “area with substrate ENLNFQS” value was 0.0632, the “area with substrate ENLRFQS” value was 0.0681, the “area with substrate ENLSFQS” value was 0.0641 and the “area with substrate ENLVFQS” value amounted to 0.0868. For the same variant, the “area with substrate ENLWFQS” value amounted to 0.0569.
H143I: the “area with substrate ENLFFQS” value stood at 0.0545, the “area with substrate ENLIFQS” value is 0.0721, the “area with substrate ENLKFQS” value was determined as 0.0715 and the “area with substrate ENLLFQS” value worked out at 0.0746. The “area with substrate ENLMFQS” value stood at 0.0538, the “area with substrate ENLPFQS” value came out at 0.0552 and the “area with substrate ENLRFQS” value is 0.0664.
